Test results published in PubChem BioAssay (NCI).
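Protocol summary: plate cells (96-well), add compound at 5 concentrations, incubate 48 h, interpolate endpoints linearly. GI50 is the concentration that inhibits growth by half. At the TGI there is no net growth.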

These compounds were tested on NCI-H322M lung (assay: inhibition of tumour cell growth, NCI panel, 48 h).

Row | SMILES | TGI | GI50
1 | CCOC(=O)P(=O)(O)c1ccc(N(C)Cc2ccccc2)cc1 | > 100 µM | –
2 | COc1cc([C@@H]2OC[C@@H]3C(c4cc(OC)c5c(c4)OCO5)OC[C@@H]32)cc(OC)c1OC (stereo not given in full) | > 100 µM | –
3 | COC(=O)/C(C)=C(/CCC1(C)OCCO1)O[Si](C)(C)C | > 100 µM | –
4 | CCc1cc(C(=O)OC)cn1C(=N)c1ccc(Cl)cc1 | > 100 µM | –
5 | CC(CCN)(CCN)[N+](=O)[O-] | > 100 µM | –
6 | CC(C)N(Cc1ccccc1)c1c(S)ssc1=S | > 100 µM | 3.39 µM
7 | CC(=O)OCC1=C(CCC#N)N2C(=O)C(NC(=O)Cc3cccs3)C2S(=O)C1 (stereo not given) | > 100 µM | –
8 | Cc1ccc(S(=O)(=O)OC2CSS(=O)CC2OS(=O)(=O)c2ccc(C)cc2)cc1 (stereo not given) | 42.3 µM | –
9 | O=C(NC1=NCC(CN2CCN(c3ccccc3)CC2)O1)Nc1ccccc1 (stereo not given) | > 100 µM | –
10 | COc1ccc(C(=O)c2cc(OC)c(OC)c(OC)c2)cc1OC(=O)CCl | > 100 µM | 0.0809 µM
11 | COC(=O)C1(C)CCC(c2ccc(C)cc2)=C(CC(=O)O)C1 (stereo not given) | > 100 µM | –
12 | O=c1[nH]c2cc(Cl)ccc2nc1/C(=N\O)C(O)c1cccc([N+](=O)[O-])c1 (stereo not given) | > 100 µM | –
13 | CCOC(=O)c1cnc2oc3ccc(O)cc3c2c1C | > 100 µM | –
